# Hit rate of the full screen: of about 270,000 compounds, about 5,800 (2.1%) were called active. Inconclusive means that the source gave no clear call. Such entries were picked first, then a sample of the others. The call rests on the fitted dose curve; in most records, active means well fitted inhibition curve with a large enough effect; inconclusive means small, poorly fitted or top-dose-only effect; inactive means flat fitted curve, though single readings scatter. Potencies beside an inconclusive call are fits to weak or partial responses and may not hold up.
# Biological target: Microtubule-associated protein tau (Homo sapiens) (UniProt P10636)
# UniProt P10636, sequence (P10636 whole entry, looked up): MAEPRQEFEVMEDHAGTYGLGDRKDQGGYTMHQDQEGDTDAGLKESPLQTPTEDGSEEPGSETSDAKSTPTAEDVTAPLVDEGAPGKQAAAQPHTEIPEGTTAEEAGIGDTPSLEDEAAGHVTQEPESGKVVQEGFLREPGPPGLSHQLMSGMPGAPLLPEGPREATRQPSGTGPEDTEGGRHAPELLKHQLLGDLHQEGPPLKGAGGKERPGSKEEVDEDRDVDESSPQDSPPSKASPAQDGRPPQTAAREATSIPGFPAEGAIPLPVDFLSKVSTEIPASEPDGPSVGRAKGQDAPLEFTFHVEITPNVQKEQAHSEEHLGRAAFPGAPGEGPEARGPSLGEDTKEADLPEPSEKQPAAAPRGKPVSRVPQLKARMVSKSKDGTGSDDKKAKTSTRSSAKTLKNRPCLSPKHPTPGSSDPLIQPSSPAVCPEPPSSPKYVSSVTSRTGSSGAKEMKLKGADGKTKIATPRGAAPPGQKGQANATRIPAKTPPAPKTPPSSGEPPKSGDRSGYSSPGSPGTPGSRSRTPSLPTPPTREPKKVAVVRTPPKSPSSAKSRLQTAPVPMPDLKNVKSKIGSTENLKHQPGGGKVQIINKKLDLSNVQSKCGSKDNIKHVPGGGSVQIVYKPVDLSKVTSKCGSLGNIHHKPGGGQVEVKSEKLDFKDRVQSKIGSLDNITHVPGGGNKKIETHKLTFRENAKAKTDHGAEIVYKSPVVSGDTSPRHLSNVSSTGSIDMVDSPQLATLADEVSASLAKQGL
# Experiment: qHTS for Inhibitors of Tau Fibril Formation, Thioflavin T Binding; further: nearly all actives have a fitted effect of over 55% in size
# Settings: recombinant tau K18 P301L (four-repeat tau fragment), heparin-induced fibrillization, ThT fluorescence; series mostly up to 57.4 µM; activity, negative = inhibition: at the top concentration
# Method in brief: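 Aggregation was driven by heparin (20 uM final) acting on recombinant tau […] bearing P301L in 100 mM sodium acetate pH 7; fibrils were detected with Thioflavin T.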
# On the % scale 0 is the no-effect control and ±100 the full control effect; potency means the concentration at half of the fitted maximal effect; tags describe the fitted curve by direction and shape.
SMILES,"activity, negative = inhibition",Potency
CC(C)(C)N=C1NN=C(c2ccc(Cl)cc2)CS1,inactive: -16.8%,
CC(=O)C1=C(C)NC(SCC(=O)Nc2nc3ccccc3s2)=C(C#N)C1c1ccc(Cl)cc1 (stereo not given),,"inconclusive: 44.7 µM [inhibitor, single point]"
O=C(CCl)NNC(=O)c1c(O)c2ccccc2[nH]c1=O,,"inconclusive: 35.5 µM [inhibitor, partial curve]"
O=C(Cn1cc(C(F)(F)F)ccc1=O)Nc1ccc(N2CCOCC2)cc1,inactive: -9.52%,
CC(c1nccs1)N(C)C(=O)CCc1nnc(-c2ccc(-c3ccccc3)cc2)o1 (stereo not given),,"inconclusive: 12.6 µM [inhibitor, partial curve]"
COC(=O)c1ccccc1NC(=O)c1cc2ccccn2n1,inactive: -9.33%,
NC(N)=Nc1cc2ccccc2c2ccccc12,,"inconclusive: 14.1 µM [inhibitor, partial curve]"
C/C(=N\NC(=O)c1cc2c(s1)CCC(C)C2)c1cccnc1 (stereo not given),,"inconclusive: 12.6 µM [inhibitor, partial curve]"
CC(=O)Oc1cc2c(cc1Cl)C(c1cccs1)CC1(CC(C)(C)NC(=S)N1)O2 (stereo not given),inactive: -11.2%,
CCCC(=O)Nc1nn(C)c2nc3c(C)cccc3cc12,,"inconclusive: 7.08 µM [inhibitor, partial curve, poor fit]"
COc1ccc(S(=O)(=O)NCc2ccc(C(=O)N3CCc4ccccc4C3)cc2)cc1,,"inconclusive: 39.8 µM [inhibitor, single point]"
O=C(Nc1cccc(C(F)(F)F)c1)c1cc2c(=O)c3ccccc3oc2nc1C(F)(F)F,,"inconclusive: 14.1 µM [inhibitor, partial curve]"
Cc1ccc(C(=O)COC(=O)CCc2nc3ccccc3[nH]c2=O)cc1C,,"inconclusive: 1.41 µM [inhibitor, full curve, poor fit]"
CCCCCn1c(=O)[nH]c2cc(C(=O)N3CCN(c4ccc(OC)cc4)CC3)ccc2c1=O,inactive: -12.9%,
CCCc1cc(=O)[nH]c(SCC(=O)Nc2sc3c(c2C#N)CCC(C)C3)n1 (stereo not given),,"inconclusive: 11.2 µM [inhibitor, partial curve]"
COC(=O)c1ccc(-n2c(C)cc(C(=O)CSc3ccc(NC(C)=O)cc3)c2C)cc1,,"inconclusive: 31.6 µM [inhibitor, single point]"
CN(C)c1ccc(C(=O)Nc2sc(Nc3ccccc3)nc2C(N)=O)cc1,,active: 1.12 µM
Cc1[nH]c2ccccc2c1C(c1ccccn1)N1CCCC1 (stereo not given),,"inconclusive: 31.6 µM [inhibitor, partial curve]"
CC(=O)Nc1sc(N)nc1-c1ccccc1,inactive: -14.3%,
O=[N+]([O-])c1ccc(-c2cn(-c3ccc(Cl)cc3)c(=S)[nH]2)cc1,,"inconclusive: 0.355 µM [inhibitor, full curve]"
O=C(Nc1cccc(Br)c1)Nc1nc2c(s1)CCCCCC2,inactive: -7.8%,
O=c1c(Cl)c(NCCCO)cnn1-c1nc2ccccc2[nH]1,,"inconclusive: 25.1 µM [inhibitor, partial curve]"
Cc1nccn1CC(O)Cn1c2ccccc2c2ccccc21 (stereo not given),,"inconclusive: 39.8 µM [inhibitor, single point]"
CC(C)C(=O)Nc1ccccc1C(=O)OCc1cc(=O)n2nc(C3CC3)sc2n1,inactive: -11.9%,

SMILES,"activity, negative = inhibition",Potency
CCC(Sc1nc2cc3c(cc2c(=O)n1CCCCCC(=O)NCc1ccc2c(c1)OCO2)OCO3)C(=O)NCCCOC (stereo not given),inactive: 5.36%,
COc1ccc(CCNC(=O)C(=O)NCC(c2ccco2)S(=O)(=O)c2cccs2)cc1 (stereo not given),inactive: -12.9%,
CCc1noc(-c2ccc(N3CCC(C)CC3)c([N+](=O)[O-])c2)n1,inactive: 0.468%,
Cc1c(C(=O)N/N=C/c2ccncc2)no[n+]1[O-],,"inconclusive: 0.282 µM [inhibitor, full curve, poor fit]"
CC(C)(C)c1csc(N/N=C/c2cccnc2)n1,,"inconclusive: 7.94 µM [inhibitor, partial curve]"
c1csc(C2Nc3cccc4cccc(c34)N2)c1,,active: 11.2 µM
Cc1nn2c(=O)cc(COC(=O)c3ccc(NC(=O)CCc4ccccc4)cc3)nc2s1,inactive: 1.3%,
CN(C)/C=C/c1c([N+](=O)[O-])c2ccc(O)cc2n1-c1ccccc1,,active: 12.6 µM
C/C(=N/NC(=O)c1cc2ccccc2cc1O)C1C(=O)c2ccccc2C1=O,,active: 2.51 µM
O=[N+]([O-])c1ccc(COn2nnc3ccccc32)cc1,,"inconclusive: 10 µM [inhibitor, partial curve]"
CNCC(=O)NCC(=O)N[C@@H](Cc1ccccc1)C(=O)N[C@@H](CC(C)C)C(=O)O,inactive: 4.46%,
COc1ccc(-c2nc3ccccc3n2Cc2ccc(C(C)C)cc2)cc1,,"inconclusive: 39.8 µM [inhibitor, single point]"
COCCN(C(=O)CN1CCc2ccccc2C1)c1c(N)n(Cc2ccccc2)c(=O)[nH]c1=O,,"inconclusive: 3.55 µM [inhibitor, full curve]"
CC(C)CNC(=O)c1cc([N+](=O)[O-])ccc1N1CCOCC1,,"inconclusive: 39.8 µM [inhibitor, single point]"
COc1cccc(N2CCN(CC(=O)Nc3nc4c(s3)CC(C)CC4)CC2)c1 (stereo not given),,"inconclusive: 15.8 µM [inhibitor, partial curve]"
CCOC(=O)NC1(NCc2ccccc2)Oc2ccccc2O1,,"inconclusive: 14.1 µM [inhibitor, partial curve]"
COc1ccc(/C=N/Nc2cc(OC)ncn2)cc1,,"inconclusive: 15.8 µM [inhibitor, partial curve]"
O=C(Nc1ccc(S(=O)(=O)N2CCCC2)cc1)c1ccc2c(=O)n3c(nc2c1)CCCCC3,inactive: 8.99%,
CCOc1ccc(NC(=O)NC(C)c2c(-n3cccc3)sc3c2CCN(CC)C3)cc1 (stereo not given),inactive: -12.9%,
COc1cc(/C=C2\C(=O)N(c3ccc(NC(C)=O)cc3)N=C2c2ccccc2)ccc1O,,"inconclusive: 15.8 µM [inhibitor, partial curve]"
COc1ccc(NC(=O)c2cnc(N3CCOCC3)c3ccccc23)cc1OC,,"inconclusive: 22.4 µM [inhibitor, single point]"
COCCNC(=O)CSc1nc2ccc(N3CCOCC3)cc2c(=O)n1CCc1ccccc1,,"inconclusive: 15.8 µM [inhibitor, partial curve]"
COc1ccccc1-n1cnnc1SCC(=O)Nc1ncc(Cl)cc1Cl,inactive: 7.71%,
Cc1cccc(-c2nc3cc(NC(=O)c4ccc(OCC(C)C)cc4)ccc3o2)c1,,"inconclusive: 1.12 µM [inhibitor, full curve]"

SMILES,"activity, negative = inhibition",Potency
CCCCNc1nc(Oc2ccc(=O)n(C)n2)nc(N2CCOCC2)n1,inactive: 0.818%,
O=C1Nc2ccc(Cl)cc2/C1=C/C1CC=CCC1 (stereo not given),,"inconclusive: 15.8 µM [inhibitor, single point]"
COc1ccc(C(CCN2CCCC(C)C2)c2c(OC)cc(OC)c3c(-c4ccccc4)cc(=O)oc23)cc1 (stereo not given),,"inconclusive: 12.6 µM [inhibitor, partial curve]"
Cc1cc(C)cc(NC(=O)c2cc(S(=O)(=O)N3CCC(C)CC3)cn2C)c1,inactive: 5.45%,
COc1ccc(Br)cc1CNC(=O)c1ccc2c(c1)nc1n2CCC(C)C1 (stereo not given),,"inconclusive: 20 µM [inhibitor, single point]"
CC1(C)OC(c2ccccc2)=C/C(=C/C=C2C(=O)c3ccccc3C2=O)O1,,"inconclusive: 2.24 µM [inhibitor, partial curve]"
Cc1cc(C)n(-c2nc(-c3ccc(Cl)c(Cl)c3)cs2)n1,,"inconclusive: 15.8 µM [inhibitor, partial curve]"
O=c1[nH]c(CN2CCN(c3ccccc3O)CC2)nc2scc(-c3ccccc3Cl)c12,,"inconclusive: 39.8 µM [inhibitor, single point]"
Cc1ccc(-c2nn(-c3cccc(F)c3)cc2CN2CCN(c3ccccn3)CC2)o1,,"inconclusive: 11.2 µM [inhibitor, partial curve]"
Cc1ncoc1C(=O)Nc1ccc(Oc2ccccc2)cc1,inactive: -16.5%,
COc1ccc(C(=O)NNc2ncnc3c2cnn3-c2ccc(C)c(Cl)c2)cc1,inactive: 3.95%,
COC(=O)c1ccc(C(NC(=O)c2ccco2)[C@]2(C)C[C@H]2C2CCCCC2)cc1 (stereo not given in full),,"inconclusive: 28.2 µM [inhibitor, single point]"
Cc1occc1C(=O)N/N=C/c1ccc(Br)s1,,"inconclusive: 0.316 µM [inhibitor, partial curve, poor fit]"
O=C(CSC(=S)N1CCN(c2ccccc2)CC1)Nc1nc(-c2ccccc2)c(-c2ccccc2)o1,inactive: -5.6%,
CCOC(=O)CSC1=C(C#N)C(c2ccco2)C(C(=O)OCc2ccccc2)=C(C)N1 (stereo not given),,"inconclusive: 35.5 µM [inhibitor, single point]"
Oc1ccc(-c2csc(Nc3ncccn3)n2)c(O)c1,,"inconclusive: 3.16 µM [inhibitor, full curve]"
Cc1ccc2nc(C(C)O)[nH]c2c1 (stereo not given),inactive: -0.628%,
Cc1cc2nc(/N=C(\N)NC(=O)C(C)C)nc(C)c2cc1C,,"inconclusive: 2 µM [inhibitor, full curve]"
O=C(OCC(=O)N1CCN(c2ccccc2)CC1)c1ccc2ncsc2c1,,"inconclusive: 7.94 µM [inhibitor, partial curve]"
CCOc1ccc(C2CC(=O)N(Nc3ccc([N+](=O)[O-])cc3[N+](=O)[O-])C2=O)cc1 (stereo not given),,"inconclusive: 39.8 µM [inhibitor, single point]"
COc1ccc(C(=O)c2c(N)c(-c3nc(-c4ccc(OC)cc4)cs3)c3ccccn23)cc1,,"inconclusive: 7.08 µM [inhibitor, full curve]"
CCN(CC)C(=O)c1sc(NC(=O)c2ccc(OC)c([N+](=O)[O-])c2)c(C#N)c1C,,"inconclusive: 20 µM [inhibitor, single point]"
